Data taken from PubChem BioAssay (NCI).
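Cells were grown in 96-well plates and exposed to each compound for 48 hours at five concentrations; endpoints were interpolated linearly between bracketing concentrations, or set to the highest concentration if not reached. Here, GI50 denotes the concentration required for 50% inhibition of growth.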 Certain results were filed several times, with different values. The list is limited to them. An entry can have further records. For some assays here: Records of one sample usually come from different ranges of test concentrations, not given here; some values may only mark the edge of a range. For some assays here: The records of an entry are repeats (runs, samples, wells, individuals or studies). What stands in brackets tells the records apart. The letters are not those of the source and start again with each entry.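 TGI: concentration producing complete growth inhibition.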

Legend:
Experiment in all cases: NCI tumour cell line growth inhibition, 48 h
SK-MEL-2 melanoma = system: SK-MEL-2 melanoma
COLO 205 colon = system: COLO 205 colon
EKVX NSCLC = system: EKVX NSCLC
HOP-92 NSCLC = system: HOP-92 NSCLC
K-562 leukemia = system: K-562 leukemia
MALME-3M melanoma = system: MALME-3M melanoma
MCF7 breast = system: MCF7 breast
NCI-H23 lung = system: NCI-H23 lung
NCI-H460 lung = system: NCI-H460 lung
NCI-H522 lung = system: NCI-H522 lung
OVCAR-3 ovarian = system: OVCAR-3 ovarian
OVCAR-8 ovarian = system: OVCAR-8 ovarian
RPMI-8226 leukemia = system: RPMI-8226 leukemia
RXF 393 renal = system: RXF 393 renal
SF-539 CNS = system: SF-539 CNS
SK-MEL-28 melanoma = system: SK-MEL-28 melanoma
SN12C renal = system: SN12C renal
SNB-19 CNS = system: SNB-19 CNS
SW-620 colon = system: SW-620 colon
U251 CNS = system: U251 CNS
SNB-75 CNS = system: SNB-75 CNS
SR leukemia = system: SR leukemia

**Q.** With `COC1OC(COC(C)=O)C(OC(C)=O)C(OC(C)=O)C1NC(=O)N(CCCl)N=O` (stereo unspecified) as the compound, how does the GI50 (SK-MEL-2 melanoma) read?
**A.** 2.77 µM [sample A, 1 test] and > 100 µM [sample B, 1 test]

**Q.** `CCCCCCCCCCS(=O)CC(CO)NC(=O)/C=C/c1c(C)[nH]c(=O)[nH]c1=O` (stereo unspecified) was tested. Which TGI (COLO 205 colon) did it give?
**A.** 1.39 µM and 14.7 µM

**Q.** And the TGI (EKVX NSCLC)?
**A.** 5.38 µM and 74 µM

**Q.** What about the TGI (HOP-92 NSCLC) of the same compound?
**A.** 1.65 µM and 30.7 µM

**Q.** And the TGI (K-562 leukemia)?
**A.** 7.18 µM and > 100 µM

**Q.** What about the TGI (MALME-3M melanoma) of the same compound?
**A.** 4.18 µM and 58.2 µM

**Q.** What about the TGI (MCF7 breast) of the same compound?
**A.** 3.88 µM and > 100 µM

**Q.** What about the TGI (NCI-H23 lung) of the same compound?
**A.** 3.07 µM and > 100 µM

**Q.** And the GI50 (NCI-H460 lung)?
**A.** 3.81 µM [1 test] and 90.3 nM [mean of 5 tests]

**Q.** What about the TGI (NCI-H522 lung) of the same compound?
**A.** 540 nM and 26.3 µM

**Q.** What about the GI50 (OVCAR-3 ovarian) of the same compound?
**A.** 16 µM [1 test] and 313 nM [mean of 5 tests]

**Q.** And the TGI (OVCAR-3 ovarian)?
**A.** 32.8 µM [1 test] and 1.87 µM [mean of 5 tests]

**Q.** And the GI50 (OVCAR-8 ovarian)?
**A.** 19.3 µM [1 test] and 178 nM [mean of 5 tests]

**Q.** And the TGI (OVCAR-8 ovarian)?
**A.** 35.1 µM [1 test] and 1.23 µM [mean of 5 tests]

**Q.** What about the TGI (RPMI-8226 leukemia) of the same compound?
**A.** 7.94 µM and > 100 µM

**Q.** What about the TGI (RXF 393 renal) of the same compound?
**A.** 2.56 µM and 31.1 µM

**Q.** What about the TGI (SF-539 CNS) of the same compound?
**A.** 2.49 µM and 30.3 µM

**Q.** What about the TGI (SK-MEL-2 melanoma) of the same compound?
**A.** 3.83 µM and > 100 µM

**Q.** What about the TGI (SK-MEL-28 melanoma) of the same compound?
**A.** 9.07 µM and > 100 µM

**Q.** And the TGI (SN12C renal)?
**A.** 2.06 µM and 32.6 µM

**Q.** And the GI50 (SNB-19 CNS)?
**A.** 11.9 µM [1 test] and 136 nM [mean of 3 tests]

**Q.** And the TGI (SW-620 colon)?
**A.** 9.31 µM and > 100 µM

**Q.** And the TGI (U251 CNS)?
**A.** 1.5 µM and > 100 µM

**Q.** What does the source list for `C[C@@]1(C(=O)Nc2ccc(F)nc2)CCCN1c1nc(Nc2cc(C3CC3)[nH]n2)c2cccn2n1`?
**A.** GI50 (K-562 leukemia): 398 nM [sample A, mean of 2 tests] and 12.8 µM [sample B, 1 test]; TGI (SNB-75 CNS): 317 nM [sample A, 1 test] and 4.31 µM [sample B, mean of 2 tests]; GI50 (SR leukemia): 319 nM [sample A, mean of 2 tests] and 4.31 µM [sample B, 1 test]
